This is an account of results in PubChem BioAssay AID1645882 (National Center for Advancing Translational Sciences (NCATS), 2021).

The whole screen tested about 16,000 compounds, of which about 120 (0.75%) were called active. Roughly 4% stayed inconclusive and do not appear here. The call rests on the fitted dose curve; in most records, active means well fitted inhibition curve with a large enough effect; inconclusive means small, poorly fitted or top-dose-only effect; inactive means no such curve, though single readings can be large or run the other way. Some of the results follow.

UniProt O95398, sequence (O95398 whole entry, looked up): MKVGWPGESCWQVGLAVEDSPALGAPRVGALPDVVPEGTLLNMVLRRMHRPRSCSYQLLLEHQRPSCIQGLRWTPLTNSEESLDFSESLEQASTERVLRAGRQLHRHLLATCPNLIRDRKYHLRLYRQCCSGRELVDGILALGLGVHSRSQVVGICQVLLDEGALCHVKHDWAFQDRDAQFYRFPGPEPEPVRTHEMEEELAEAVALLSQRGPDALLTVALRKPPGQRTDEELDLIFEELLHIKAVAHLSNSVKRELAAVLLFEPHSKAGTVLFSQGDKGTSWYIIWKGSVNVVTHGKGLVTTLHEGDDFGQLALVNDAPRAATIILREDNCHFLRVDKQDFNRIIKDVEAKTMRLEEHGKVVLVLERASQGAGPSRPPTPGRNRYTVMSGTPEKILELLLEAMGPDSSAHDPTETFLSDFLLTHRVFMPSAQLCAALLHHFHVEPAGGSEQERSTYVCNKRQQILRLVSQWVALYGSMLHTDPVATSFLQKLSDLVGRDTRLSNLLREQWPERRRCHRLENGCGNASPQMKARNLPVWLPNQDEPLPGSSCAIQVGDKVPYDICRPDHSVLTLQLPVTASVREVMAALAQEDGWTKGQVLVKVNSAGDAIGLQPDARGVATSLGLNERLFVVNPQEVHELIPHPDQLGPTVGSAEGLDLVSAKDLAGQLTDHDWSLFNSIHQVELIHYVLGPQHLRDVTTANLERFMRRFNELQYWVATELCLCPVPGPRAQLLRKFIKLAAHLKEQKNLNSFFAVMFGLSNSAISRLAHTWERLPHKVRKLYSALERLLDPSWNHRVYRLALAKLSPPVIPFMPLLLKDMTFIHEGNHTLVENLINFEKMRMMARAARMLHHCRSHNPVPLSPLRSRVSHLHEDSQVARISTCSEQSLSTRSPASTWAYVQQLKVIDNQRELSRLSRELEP

In the test the target is Rap guanine nucleotide exchange factor 3 (Homo sapiens) (UniProt O95398). Kind of test: Validation qHTS for antagonist of cAMP-regulated guanine nucleotide exchange factor 3 (EPAC1).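 Further: plate controls were DMSO for no effect and ATA control for full effect; nearly all actives have a fitted effect of over 75% in size.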 The note with it: EPAC1 Rap1B-BODIPY-GDP exchange, fluorescence; series mostly up to 150 µM; activity change, negative = inhibition: at the top concentration. In outline:
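EPAC1 (100 nM) mixed with 250 nM RAP1B-BODIPY-GDP and 50 uM GDP; compounds in concentration series, 5 min at room temperature. Fluorescence (ex 480/em 540 nm) read every 5 min for 30 min; normalized to ATA control and DMSO.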
(In general: qHTS replaces the single test concentration by a dilution series.)
On to `N#CCCn1c(=O)c(CCc2ccccc2)nc2cnc(Oc3cccc(Cl)c3)nc21`, for which the “activity change, negative = inhibition” value is inactive: 4.21%. Take `CS(=O)(=O)c1ccc(-c2cccc3c2OC(CNC(=O)c2ccnc(Cl)c2)C3)cc1` (stereo not drawn): the “activity change, negative = inhibition” value is inactive: 10.5%.

As to `COc1cccc(-c2ccc3ncnc(N(C)Cc4ccco4)c3c2)c1`, the “activity change, negative = inhibition” value is inactive: 1.61%. For `COc1cccc(Cn2c(=O)cnc3cnc(Nc4ccccc4)nc32)c1`, the “activity change, negative = inhibition” value is inactive: 23.1%. With `O=C1CC(c2ccc(O)c(O)c2)Oc2cc(O)cc(O)c21` (stereo not drawn), the “activity change, negative = inhibition” value is inactive: 11.3%. For `C=C[C@]1(C)CC(=O)[C@@]2(O)[C@@]3(C)C(O)CCC(C)(C)C3C(O)C(OC(C)=O)[C@@]2(C)O1` (stereo partly drawn) the value was inactive: 5.86%; for `COc1ccc(C2CNC(=O)C2)cc1OC1CCCC1` (stereo not drawn), “inactive”. The value for `CC(/C=C/c1cccc(Oc2ccc(F)cc2)c1)N(O)C(N)=O` (stereo not drawn) was “inactive”; that for `CCN(CC)c1ncnc2c1ncn2[C@@H]1O[C@H](COP(=O)(O)OP(=O)(O)C(Br)(Br)P(=O)(O)O)[C@@H](O)[C@H]1O` was inactive: 11.9% [at 75.8 µM]; that for `O=c1c(O)c(-c2ccc(O)cc2O)oc2cc(O)cc(O)c12` was “inactive”. The value for `CC(C)c1c(C(=O)NCCN2CCOCC2)cnn1-c1nccc(-c2cccs2)n1` was inactive: 12.6%. On to `Cc1cnc(CNc2ccnc(-c3ccccc3C)n2)cn1`, for which the “activity change, negative = inhibition” value was inactive: -3.59%. For `CCNc1ncc2nc(-c3ccccc3)c(=O)n(Cc3cccc(OC)c3)c2n1` the value was inactive: -1.66%; for `COC(=O)c1cc(CNC(=O)c2ccc3ncccc3c2)cc(NC(=O)c2ccccc2Cl)c1`, inactive: 2.03%. The value for `COc1ccc(CNc2nc(-c3ccc4c(c3)OCO4)nc3ccccc23)c(OC)c1` was inactive: -0.619%. For `CC(C)C[C@@H](CO)N1CCN(Cc2cccc(C#N)c2)CCC1=O`, the “activity change, negative = inhibition” value was inactive: 16.5%. With `CCOC(=O)c1c[nH]c2cc(OCC(C)C)c(OCC(C)C)cc2c1=O`, the “activity change, negative = inhibition” value was inactive: 11.4%.

With `Cc1noc(C)c1-c1cncnc1N(C)Cc1ccco1`, the “activity change, negative = inhibition” value is inactive: 0.989%. The value for `CC(=O)C1CCC2C3CCC4=CC(=O)CC[C@@]4(C)C3CC[C@]12C` (stereo partly drawn) was inactive: -1.63%; that for `Cc1c(C(=O)NCC(C)(C)N2CCOCC2)cnn1-c1ncc2c(n1)-c1ccccc1CCC2` was inactive: 9.25%; that for `Cc1cccc(-c2cnc(C)nc2C2CCCN(C(=O)c3cccc(Cn4cccn4)c3)C2)c1` (stereo not drawn) was inactive: 11.4%.

For the compound `CC(=O)c1ccc(F)c(-c2cc(C)cc3c2OC(CNC(=O)c2ccnn2C)C3)c1` (stereo not drawn), the “activity change, negative = inhibition” value is inactive: -6.99%. Take `COc1ccc(-c2coc3cc(OC)cc(OC)c3c2=O)cc1`: the “activity change, negative = inhibition” value is inactive: -7.54%. Consider `O=c1c(O)c(-c2ccccc2)oc2cc(O)ccc12`, for which the “activity change, negative = inhibition” value was inactive: 16.4%.

In the case of `COc1cc(CN2CCCC(c3nc(-c4ccncc4)ncc3-c3ccccc3)C2)ccc1O` (stereo not drawn), the “activity change, negative = inhibition” value is inactive: 21.2%. For `NCC1O[C@H](O[C@@H]2C(O)[C@H](O[C@H]3OC(CO)C(O)C(N)C3O)[C@@H](N)C[C@H]2N)[C@@H](N)CC1O` (stereo partly drawn) the value was inactive: 9.93%; for `O=S1(=O)CCO[C@H]2Cc3ccccc3[C@H]2N1Cc1cccc(Cl)c1`, inactive: -2.75%. Consider `Cc1c(C(=O)N(C)Cc2nccs2)sc2ncnc(NCC3CCCO3)c12` (stereo not drawn), for which the “activity change, negative = inhibition” value was inactive: 13.6%.

Take `Cc1cc(-c2ccnc(-n3ncc(C(=O)NC(C)(C)CO)c3C3CC3)n2)c(C)s1`: the “activity change, negative = inhibition” value was inactive: 7.57%. As for `Cn1c(=O)c(-c2ccc(F)cc2)nc2cnc(OCc3ccccc3)nc21`, the “activity change, negative = inhibition” value is inactive: 20.7%. Regarding `CCNc1ncc2nc(-c3ccccc3)c(=O)n(C3CC3)c2n1`, the “activity change, negative = inhibition” value was inactive: 13.2%. For `O=C(O)C#CC(=O)O` the value was inactive: 15.7%; for `CN(C)c1ncc2nc(-c3ccc(Cl)cc3)c(=O)n(Cc3ccc(F)cc3)c2n1`, inactive: 21.2%; for `Cn1ccc2cc(NC(=O)Nc3cccnc3)ccc21`, inactive: 2.44%.

With `COc1ccc(SCCN2CC[C@@H](C)CCC2=O)cc1`, the “activity change, negative = inhibition” value was inactive: 5.35%.

For `O=CC(=O)c1ccc(Cl)cc1`, the “activity change, negative = inhibition” value was inactive: 20.5%. Regarding `CN1C(CSCC(F)(F)F)Nc2cc(Cl)c(S(N)(=O)=O)cc2S1(=O)=O` (stereo not drawn), the “activity change, negative = inhibition” value is inactive: 26.5%. The value for `CC(=O)[C@]1(O)Cc2c(O)c3c(c(O)c2[C@@H](O[C@H]2C[C@H](N)[C@H](O)[C@H](C)O2)C1)C(=O)c1ccccc1C3=O` was “inactive”; that for `CN(C)c1ncc2nc(-c3ccc(F)cc3)c(=O)n(C)c2n1` was inactive: 14.1%. The value for `Cc1ccc(CN2C[C@H](Sc3ccccn3)C[C@H]2C(=O)Nc2ccc3sc(C)nc3c2)c(C)c1` was inactive: 2.23%. The value for `COc1ccccc1CN1CCCC2(CCN(C(=O)c3cc(C(F)(F)F)cc(C(F)(F)F)c3)CC2)C1` was inactive: -8.73%. Take `OC1(c2ccc3c(c2)CN(Cc2nccs2)CCO3)CCN(c2ccccc2F)CC1`: the “activity change, negative = inhibition” value was inactive: 2.66%. In the case of `COc1ccccc1CN1CCCC2(CCN(C(=O)c3ccco3)CC2)C1`, the “activity change, negative = inhibition” value was inactive: 9.3%. In the case of `CC(=O)OC1CC2C(C)(C)C(O)CC[C@@]2(C)C2CC[C@@]3(C)C(c4ccoc4)OC(=O)C4O[C@@]43[C@]12C` (stereo partly drawn), the “activity change, negative = inhibition” value was inactive: -3.16%. The value for `O=C1c2ccccc2C(=O)c2c1ccc(O)c2O` was inactive: 12.3%; that for `COc1cccc(N2[C@@H](CC(=O)O)c3ccccc3S2(=O)=O)c1` was inactive: 15.5%; that for `Nc1nc(=S)c2[nH]cnc2[nH]1` was “inactive”.

Regarding `O=c1c2cc(O)c(O)cc2oc2cc(O)c(C3OC(CO)C(O)C(O)C3O)c(O)c12` (stereo not drawn), the “activity change, negative = inhibition” value was inactive: 22.6%.
